Among the data in publication PMC5173251 are binding values, retold here.

Amino acid sequences for entries named in this document (tags omitted).
UniProt Q558Z2: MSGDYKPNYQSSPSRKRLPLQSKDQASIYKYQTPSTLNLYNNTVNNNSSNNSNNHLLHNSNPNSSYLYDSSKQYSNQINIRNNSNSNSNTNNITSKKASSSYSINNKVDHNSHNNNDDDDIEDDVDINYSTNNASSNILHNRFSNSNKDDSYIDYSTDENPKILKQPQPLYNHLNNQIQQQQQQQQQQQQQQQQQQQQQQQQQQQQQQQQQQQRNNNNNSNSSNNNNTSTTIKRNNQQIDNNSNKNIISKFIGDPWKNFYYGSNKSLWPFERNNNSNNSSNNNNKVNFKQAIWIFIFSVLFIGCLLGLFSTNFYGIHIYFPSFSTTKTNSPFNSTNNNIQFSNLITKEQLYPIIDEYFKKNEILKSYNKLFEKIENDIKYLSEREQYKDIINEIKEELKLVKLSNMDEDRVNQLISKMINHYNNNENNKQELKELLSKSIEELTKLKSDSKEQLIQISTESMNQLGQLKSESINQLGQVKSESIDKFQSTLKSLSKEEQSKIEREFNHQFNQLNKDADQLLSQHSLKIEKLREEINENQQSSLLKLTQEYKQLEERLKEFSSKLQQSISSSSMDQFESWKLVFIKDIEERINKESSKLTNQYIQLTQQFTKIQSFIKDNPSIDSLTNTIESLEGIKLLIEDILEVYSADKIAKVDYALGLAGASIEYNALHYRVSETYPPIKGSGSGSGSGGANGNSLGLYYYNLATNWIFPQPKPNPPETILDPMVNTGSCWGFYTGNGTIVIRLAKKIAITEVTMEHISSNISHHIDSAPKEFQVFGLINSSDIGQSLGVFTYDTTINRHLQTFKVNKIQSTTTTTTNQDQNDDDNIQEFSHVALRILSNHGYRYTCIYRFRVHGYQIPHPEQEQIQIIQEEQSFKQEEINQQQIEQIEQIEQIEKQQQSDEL

The test addresses T1, GFP-DdNKAP (full length DdNKAP, aa 1-510) (D. discoideum) (UniProt Q55ED4).
T1 sequence: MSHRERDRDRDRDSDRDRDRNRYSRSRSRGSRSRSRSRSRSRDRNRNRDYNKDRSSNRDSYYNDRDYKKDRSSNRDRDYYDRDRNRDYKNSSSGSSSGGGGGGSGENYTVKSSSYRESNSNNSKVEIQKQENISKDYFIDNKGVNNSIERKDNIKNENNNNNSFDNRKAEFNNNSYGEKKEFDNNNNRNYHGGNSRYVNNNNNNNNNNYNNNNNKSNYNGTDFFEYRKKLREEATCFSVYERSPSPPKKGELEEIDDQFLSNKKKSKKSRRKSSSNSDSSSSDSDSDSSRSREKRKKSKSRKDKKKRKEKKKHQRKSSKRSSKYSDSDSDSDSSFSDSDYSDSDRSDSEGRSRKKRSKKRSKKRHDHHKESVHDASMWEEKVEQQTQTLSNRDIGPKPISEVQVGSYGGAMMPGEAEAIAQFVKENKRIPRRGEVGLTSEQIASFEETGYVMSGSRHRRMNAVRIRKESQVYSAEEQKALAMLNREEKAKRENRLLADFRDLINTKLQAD
Briefly: co-IP; GFP-Trap_A agarose beads, extracts of AX2 cells expressing GFP or GFP-DdNKAP; 50 mM Tris-HCl pH 7.4, 100 mM NaCl, 1% NP 40, 0.1% SDS, 0.5% sodium deoxycholate; blot with Sun-1 mAb K55-432-2 and GFP mAb K3-184-2.

These are yes or no findings as the source states them, for the method shown. Binding seen in cells or lysates may run through a third protein. Some binding calls cover weakened binding; strength is not graded here. Tags and fused reporters may be left off the sequences shown.

Regarding “Sun-1 (endogenous) (from UniProt Q558Z2 1-905)”, the binding entry is “binds”.
